This passage reports cytotoxicity call and growth inhibition call results from the antibiotic and cytotoxicity screens of Wong et al. (2023).

One test deals with HSkMC. Description: cytotoxicity call (relative viability < 0.9). Particulars: 10 µM.
The test system of the next test is HepG2. Kind of test: cytotoxicity call (relative viability < 0.9). Particulars: 10 µM.
The subject of a further test is S. aureus RN4220. Kind of test: growth inhibition call (relative growth <= 0.2). Particulars: 50 µM.

Some of the results follow.

Regarding `COc1ccc(NC(=O)N(C)C[C@H]2OCCCC[C@H](C)Oc3ccc(NC(=O)Nc4cccc5ccccc45)cc3C(=O)N([C@@H](C)CO)C[C@H]2C)cc1`, the cytotoxicity call with HSkMC and with HepG2 was “inactive” each time. For the same molecule, the growth inhibition call with S. aureus RN4220 was “inactive”.

On to `C[C@@H]1CN([C@@H](C)CO)C(=O)c2cccc(NC(=O)c3nc4ccccc4s3)c2O[C@H]1CN(C)C(=O)Nc1ccc(C(F)(F)F)cc1`, for which the cytotoxicity call with HSkMC is “inactive”. Further, in the test on HepG2, the cytotoxicity call was “active”. Besides, the growth inhibition call in the test on S. aureus RN4220 was “inactive”.

As to `C[C@@H]1CCCCO[C@@H](CN(C)C(=O)c2ccccc2)[C@H](C)CN([C@@H](C)CO)C(=O)c2cc(NC(=O)CCC(F)(F)F)ccc2O1`, the cytotoxicity call in the test with HSkMC and with HepG2 was “inactive” each time. In addition, the growth inhibition call with S. aureus RN4220 was “inactive”.

With `O=C(C[C@@H]1C=C[C@@H](NC(=O)Cc2ccccn2)[C@H](CO)O1)NCCc1ccncc1`, the cytotoxicity call in the test with HSkMC and with HepG2 was “inactive” throughout. For the same molecule, in the test with S. aureus RN4220, the growth inhibition call is “inactive”.

On to `C[C@@H]1CN([C@@H](C)CO)C(=O)c2cccc(NC(=O)c3ccncc3)c2O[C@@H]1CN(C)Cc1ccc(Oc2ccccc2)cc1`, for which the cytotoxicity call in the test on HSkMC and in the test on HepG2 was “inactive” in each case. The growth inhibition call with S. aureus RN4220 is “inactive”.

For the molecule `CCOc1ccn(-c2ccc(F)cc2)c(=O)c1C(=O)Nc1ccc(Oc2ccnc(N)c2Cl)c(F)c1`, the cytotoxicity call in the test with HSkMC and in the test with HepG2 was “inactive” throughout. Besides, the growth inhibition call in the test on S. aureus RN4220 is “inactive”.

In the case of `C[C@@H]1CN([C@H](C)CO)C(=O)c2cc(NS(=O)(=O)c3ccc(F)cc3)ccc2O[C@@H](C)CCCCO[C@@H]1CN(C)Cc1ccccc1`, the cytotoxicity call in the test with HSkMC and in the test on HepG2 was “inactive” in each case. Besides, in the test on S. aureus RN4220, the growth inhibition call is “inactive”.

For the molecule `CN1CCN(C(=O)C[C@H]2C=C[C@H](NC(=O)Nc3ccccc3F)[C@H](CO)O2)CC1`, the cytotoxicity call in the test with HSkMC and in the test on HepG2 was “inactive” in each case. For the same molecule, the growth inhibition call in the test with S. aureus RN4220 was “inactive”.

For `C[C@@H]1CN([C@@H](C)CO)C(=O)c2cc(NS(=O)(=O)c3ccc(F)cc3)ccc2O[C@H]1CN(C)S(C)(=O)=O`, the cytotoxicity call in the test with HSkMC and with HepG2 was “inactive” each time. Also, in the test on S. aureus RN4220, the growth inhibition call is “inactive”.

Regarding `Cc1noc(C)c1NC(=O)N(C)C[C@@H]1Oc2ccc(NC(=O)CCN3CCOCC3)cc2CC(=O)N([C@@H](C)CO)C[C@H]1C`, the cytotoxicity call in the test on HSkMC and in the test with HepG2 was “inactive” throughout. Besides, the growth inhibition call with S. aureus RN4220 is “inactive”.

`C[C@H](CO)N1C[C@H](C)[C@@H](CN(C)Cc2ccc(C(=O)O)cc2)Oc2c(NC(=O)Nc3cccc4ccccc34)cccc2C1=O`: the cytotoxicity call with HSkMC and in the test with HepG2 was “inactive” throughout. The growth inhibition call with S. aureus RN4220 was “inactive”.

With `C[C@@H]1CN([C@@H](C)CO)C(=O)c2cc(NC(=O)NC3CCCCC3)ccc2O[C@@H](C)CCCCO[C@@H]1CN(C)C(=O)c1ccncc1`, the cytotoxicity call in the test on HSkMC and with HepG2 was “inactive” in each case. The growth inhibition call with S. aureus RN4220 was “inactive”.

`Cc1noc(C)c1S(=O)(=O)N(C)C[C@H]1OCCCC[C@@H](C)Oc2ccc(N(C)C)cc2C(=O)N([C@@H](C)CO)C[C@@H]1C`: the cytotoxicity call with HSkMC and in the test with HepG2 was “inactive” throughout. In addition, the growth inhibition call in the test on S. aureus RN4220 was “inactive”.

For the molecule `C[C@@H]1CCCCO[C@@H](CN(C)C(=O)Nc2ccc(F)cc2)[C@@H](C)CN([C@@H](C)CO)C(=O)c2cc(NC(=O)Nc3ccc(F)cc3)ccc2O1`, the cytotoxicity call with HSkMC and in the test on HepG2 was “inactive” each time. Also, in the test with S. aureus RN4220, the growth inhibition call is “inactive”.

As for `C[C@@H]1CCCCO[C@@H](CN(C)C(=O)c2ccncc2)[C@@H](C)CN([C@@H](C)CO)C(=O)c2cc(NC(=O)C3CCCCC3)ccc2O1`, the cytotoxicity call with HSkMC and with HepG2 was “inactive” throughout. In addition, the growth inhibition call in the test with S. aureus RN4220 was “inactive”.

On to `CN1CCN(C(=O)C[C@@H]2CC[C@@H]3[C@H](COC[C@H](O)CN3S(=O)(=O)c3cccc(Cl)c3)O2)CC1`, for which the cytotoxicity call in the test with HSkMC and in the test on HepG2 was “inactive” each time. Moreover, the growth inhibition call with S. aureus RN4220 was “inactive”.

As for `COc1ccc(S(=O)(=O)N(C)C[C@H]2OCCCC[C@H](C)Oc3ccc(NC(=O)Nc4c(C)noc4C)cc3C(=O)N([C@@H](C)CO)C[C@@H]2C)cc1`, in the test with HSkMC, the cytotoxicity call was “inactive”. Moreover, in the test on HepG2, the cytotoxicity call was “active”. For the same molecule, the growth inhibition call with S. aureus RN4220 is “inactive”.

Consider `CCOc1cc(C(C)(C)C)ccc1C1=N[C@@](C)(c2ccc(Cl)cc2)[C@@](C)(c2ccc(Cl)cc2)N1C(=O)N1CCN(CCCS(C)(=O)=O)CC1`, for which the cytotoxicity call with HSkMC was “active”. The cytotoxicity call in the test with HepG2 is “inactive”. In addition, the growth inhibition call in the test with S. aureus RN4220 is “inactive”.

Regarding `C[C@H](CO)N1C[C@H](C)[C@@H](CN(C)S(=O)(=O)c2cn(C)cn2)Oc2ccc(NS(=O)(=O)c3ccc(F)cc3)cc2C1=O`, the cytotoxicity call in the test with HSkMC and in the test on HepG2 was “inactive” in each case. Further, in the test on S. aureus RN4220, the growth inhibition call was “inactive”.

Regarding `C[C@H](CO)N1C[C@H](C)[C@@H](CN(C)S(=O)(=O)c2cn(C)cn2)Oc2ccc(NC(=O)C3CCCCC3)cc2CC1=O`, the cytotoxicity call in the test with HSkMC and in the test on HepG2 was “inactive” in each case. For the same molecule, the growth inhibition call with S. aureus RN4220 is “inactive”.

As to `COc1ccc(COC[C@]23N=C4SCc5ccccc5CN4[C@H](c4ccccc4O2)[C@H]3COC(=O)c2ccccc2)cc1`, the cytotoxicity call with HSkMC and with HepG2 was “inactive” each time. The growth inhibition call in the test on S. aureus RN4220 is “inactive”.

In the case of `C[C@@H]1CCCCO[C@H](CN(C)C(=O)c2ccccc2)[C@@H](C)CN([C@@H](C)CO)C(=O)c2cc(NC(=O)c3ccccc3)ccc2O1`, the cytotoxicity call with HSkMC and in the test with HepG2 was “inactive” each time. For the same molecule, the growth inhibition call in the test with S. aureus RN4220 was “inactive”.

Consider `CC(C)NC(=O)N(C)C[C@@H]1Oc2ccc(NS(=O)(=O)c3cn(C)cn3)cc2C(=O)N([C@@H](C)CO)C[C@H]1C`, for which the cytotoxicity call with HSkMC and with HepG2 was “inactive” throughout. The growth inhibition call with S. aureus RN4220 was “inactive”.

Turning to `CN1C(=O)c2cc(NS(C)(=O)=O)ccc2OC[C@@H]2O[C@@H](CC(=O)N3CCOCC3)CC[C@H]21`, the cytotoxicity call in the test with HSkMC and in the test with HepG2 was “inactive” in each case. In addition, in the test with S. aureus RN4220, the growth inhibition call is “inactive”.

As for `COc1ccc(S(=O)(=O)Nc2ccc3c(c2)C(=O)N([C@H](C)CO)C[C@@H](C)[C@@H](CN(C)S(=O)(=O)c2c(C)noc2C)O3)cc1`, the cytotoxicity call in the test on HSkMC and in the test with HepG2 was “inactive” throughout. The growth inhibition call in the test with S. aureus RN4220 was “inactive”.

For the molecule `C[C@@H]1CN([C@H](C)CO)C(=O)CCCn2nncc2CO[C@@H]1CN(C)Cc1cccc2c1OCCCO2`, the cytotoxicity call with HSkMC and in the test with HepG2 was “inactive” each time. Also, the growth inhibition call in the test with S. aureus RN4220 is “inactive”.

As to `C[C@@H]1CCCCO[C@H](CN(C)Cc2ccc(C(F)(F)F)cc2)[C@@H](C)CN([C@H](C)CO)C(=O)c2cc(NC(=O)Nc3cccc4ccccc34)ccc2O1`, the cytotoxicity call with HSkMC and in the test on HepG2 was “inactive” each time. Also, in the test with S. aureus RN4220, the growth inhibition call is “inactive”.

Regarding `C[C@H](CO)N1C[C@H](C)[C@@H](CN(C)CC2CC2)OCCCC[C@H](C)Oc2ccc(NC(=O)Cc3ccccc3)cc2C1=O`, the cytotoxicity call in the test on HSkMC (human skeletal muscle cells) and in the test on HepG2 was “inactive” throughout. Moreover, in the test with S. aureus RN4220, the growth inhibition call was “inactive”.
